For 6 molecules, binding results are on record in publication PMC11714167.

Amino acid sequences for entries named in this document (tags omitted). A change or cut given only in a name is not applied to a line headed by its entry. Residues count along the entry.
UniProt P19474: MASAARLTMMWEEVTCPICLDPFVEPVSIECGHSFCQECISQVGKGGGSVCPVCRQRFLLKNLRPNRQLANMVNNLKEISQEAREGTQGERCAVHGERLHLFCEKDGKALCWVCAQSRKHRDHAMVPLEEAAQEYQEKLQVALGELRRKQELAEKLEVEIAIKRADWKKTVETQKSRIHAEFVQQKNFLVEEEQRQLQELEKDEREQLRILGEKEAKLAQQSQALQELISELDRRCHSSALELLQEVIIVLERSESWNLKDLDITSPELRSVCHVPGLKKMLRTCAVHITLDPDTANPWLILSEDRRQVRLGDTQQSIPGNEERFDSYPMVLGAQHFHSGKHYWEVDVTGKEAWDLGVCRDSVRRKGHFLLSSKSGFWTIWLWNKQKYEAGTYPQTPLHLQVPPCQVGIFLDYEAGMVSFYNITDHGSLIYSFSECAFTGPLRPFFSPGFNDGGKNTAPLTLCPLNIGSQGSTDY
TRIM21 PRY-SPRY domain: residues 287-465 of P19474
UniProt Q9NZQ7, residues 19-290: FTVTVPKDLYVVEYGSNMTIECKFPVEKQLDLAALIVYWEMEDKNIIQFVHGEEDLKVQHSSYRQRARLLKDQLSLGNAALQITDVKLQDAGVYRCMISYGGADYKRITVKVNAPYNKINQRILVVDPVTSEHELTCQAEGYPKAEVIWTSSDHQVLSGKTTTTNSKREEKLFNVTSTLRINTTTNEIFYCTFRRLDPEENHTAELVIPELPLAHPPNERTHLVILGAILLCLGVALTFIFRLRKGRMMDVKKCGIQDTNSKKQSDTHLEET

Results are given in words; binding and its absence hold for the method and conditions named. In cells and extracts the contact can be indirect. Some results given as binding are weak or reduced against the parent protein; the word gives no strength. For some assays here: Where a sequence is shown, tags or fusion partners need not be part of it.

Assay [1] concerns the target AXL (endogenous) (human (endogenous in 786-O, 769-P, Caki-1)) (UniProt P30530). The assay is described as follows: co-IP; co-IP of AXL with NF-κB signalling proteins (Figure S24A,B) and of AKT with IKKα (Figure S24D); cells not given.
Assay [2] has as its target T1, STAMBPL1-USP8_dimer (human) (UniProt Q96FJ0).
T1 sequence: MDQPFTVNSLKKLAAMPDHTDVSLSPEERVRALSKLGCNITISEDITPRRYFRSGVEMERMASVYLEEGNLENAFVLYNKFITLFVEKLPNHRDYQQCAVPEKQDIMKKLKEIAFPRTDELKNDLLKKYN
The assay is described as follows: co-IP; AXL deletion mutants (AXL-ΔIC, AXL-ΔEC+TM) with STAMBPL1-USP8_dimer (Figure S12B) or the TRIM21 PRY-SPRY domain (Figure S16B); cells and tags not given.

Assay [3] has as its target TRIM21 PRY-SPRY domain (human) (UniProt P19474). The assay is described as above.
Assay [4] deals with AXL (endogenous) (human (endogenous in 786-O, 769-P, Caki-1)) (UniProt P30530). The assay is described as follows: co-IP; co-IP of TRIM21 with endogenous AXL in 786-O cells transfected with empty vector or Flag-tagged STAMBPL1 vector; conversely STAMBPL1 KD (Figure S18F).
Assay [5] concerns the target PD-L1 (human (endogenous in KIRC cells)) (UniProt Q9NZQ7). The assay is described as follows: co-IP; endogenous proteins; whole-cell extracts of KIRC cell lines (786-O, 769-P, Caki-1) immunoprecipitated with specific antibody or control IgG, protein A/G beads, washed four times with lysis buffer (20 mM Tris-HCl, 125 mM NaCl, 5 mM MgCl2, 0.2 mM EDTA, 0.1% NP-40); STAMBPL1/AXL also after Gas6 (500 ng/mL, 6 h), unaffected; AXL with HRS, STAM1, STAM2 stronger with K63-ubiquitin overexpression, STAMBPL1 KD or TRIM21 overexpression.

Assay [6] has as its target TRIM21 (endogenous) (human (endogenous in 786-O, 769-P, Caki-1)) (UniProt P19474). The assay is described as above.

B1: IKKβ (enzyme, UniProt O14920 1-756)
chain: MSWSPSLTTQTCGAWEMKERLGTGGFGNVIRWHNQETGEQIAIKQCRQELSPRNRERWCLEIQIMRRLTHPNVVAARDVPEGMQNLAPNDLPLLAMEYCQGGDLRKYLNQFENCCGLREGAILTLLSDIASALRYLHENRIIHRDLKPENIVLQQGEQRLIHKIIDLGYAKELDQGSLCTSFVGTLQYLAPELLEQQKYTVTVDYWSFGTLAFECITGFRPFLPNWQPVQWHSKVRQKSEVDIVVSEDLNGTVKFSSSLPYPNNLNSVLAERLEKWLQLMLMWHPRQRGTDPTYGPNGCFKALDDILNLKLVHILNMVTGTIHTYPVTEDESLQSLKARIQQDTGIPEEDQELLQEAGLALIPDKPATQCISDGKLNEGHTLDMDLVFLFDNSKITYETQISPRPQPESVSCILQEPKRNLAFFQLRKVWGQVWHSIQTLKEDCNRLQQGQRAAMMNLLRNNSCLSKMKNSMASMSQQLKAKLDFFKTSIQIDLEKYSEQTEFGITSDKLLLAWREMEQAVELCGRENEVKLLVERMMALQTDIVDLQRSPMGRKQGGTLDDLEEQARELYRRLREKPRDQRTEGDSQEMVRLLLQAIQSFEKKVRVIYTQLSKTVVCKQKALELLPKVEEVVSLMNEDEKTVVRLQEKRQKELWNLLKIACSKVRGPVSGSPDSMNASRLSQPGQLMSQPSTASNSLPEPAKKSEELVAEAHNLCTLLENAIQDTVREQDQSFTALDWSWLQTEEEEHSCLEQAS
Regarding B1, the binding result in assay [1] is recorded as “no binding”.

B2: TAB1 (protein, UniProt Q15750 1-504)
chain: MAAQRRSLLQSEQQPSWTDDLPLCHLSGVGSASNRSYSADGKGTESHPPEDSWLKFRSENNCFLYGVFNGYDGNRVTNFVAQRLSAELLLGQLNAEHAEADVRRVLLQAFDVVERSFLESIDDALAEKASLQSQLPEGVPQHQLPPQYQKILERLKTLEREISGGAMAVVAVLLNNKLYVANVGTNRALLCKSTVDGLQVTQLNVDHTTENEDELFRLSQLGLDAGKIKQVGIICGQESTRRIGDYKVKYGYTDIDLLSAAKSKPIIAEPEIHGAQPLDGVTGFLVLMSEGLYKALEAAHGPGQANQEIAAMIDTEFAKQTSLDAVAQAVVDRVKRIHSDTFASGGERARFCPRHEDMTLLVRNFGYPLGEMSQPTPSPAPAAGGRVYPVSVPYSSAQSTSKTSVTLSLVMPSQGQMVNGAHSASTLDEATPTLTNQSPTLTLQSTNTHTQSSSSSSDGGLFRSRPAHSLPPGEDGRVEPYVDFAEFYRLWSVDHGEQSVVTAP
For B2, the binding result in assay [1] is “no binding”.

B3: AXL-ΔEC+TM (domain or fragment, UniProt P30530 473-894)
chain: HRRKKETRYGEVFEPTVERGELVVRYRVRKSYSRRTTEATLNSLGISEELKEKLRDVMVDRHKVALGKTLGEGEFGAVMEGQLNQDDSILKVAVKTMKIAICTRSELEDFLSEAVCMKEFDHPNVMRLIGVCFQGSERESFPAPVVILPFMKHGDLHSFLLYSRLGDQPVYLPTQMLVKFMADIASGMEYLSTKRFIHRDLAARNCMLNENMSVCVADFGLSKKIYNGDYYRQGRIAKMPVKWIAIESLADRVYTSKSDVWSFGVTMWEIATRGQTPYPGVENSEIYDYLRQGNRLKQPADCLDGLYALMSRCWELNPQDRPSFTELREDLENTLKALPPAQEPDEILYVNMDEGGGYPEPPGAAGGADPPTQPDPKDSCSCLTAAEVHPAGRYVLCPSTTPSPAQPADRGSPAAPGQEDGA
In the case of B3, the binding result in assay [2] and in assay [3] was “binds” in each case.

B4: Flag-tagged STAMBPL1 (786-O) (enzyme, UniProt Q96FJ0 1-436)
chain: MDQPFTVNSLKKLAAMPDHTDVSLSPEERVRALSKLGCNITISEDITPRRYFRSGVEMERMASVYLEEGNLENAFVLYNKFITLFVEKLPNHRDYQQCAVPEKQDIMKKLKEIAFPRTDELKNDLLKKYNVEYQEYLQSKNKYKAEILKKLEHQRLIEAERKRIAQMRQQQLESEQFLFFEDQLKKQELARGQMRSQQTSGLSEQIDGSALSCFSTHQNNSLLNVFADQPNKSDATNYASHSPPVNRALTPAATLSAVQNLVVEGLRCVVLPEDLCHKFLQLAESNTVRGIETCGILCGKLTHNEFTITHVIVPKQSAGPDYCDMENVEELFNVQDQHDLLTLGWIHTHPTQTAFLSSVDLHTHCSYQLMLPEAIAIVCSPKHKDTGIFRLTNAGMLEVSACKKKGFHPHTKEPRLFSICKHVLVKDIKIIVLDLR
Consider B4, for which the binding entry in assay [4] is reported as “binds”.

B5: STAM Binding Protein Like 1 (endogenous) (enzyme, UniProt Q96FJ0 1-436)
chain: MDQPFTVNSLKKLAAMPDHTDVSLSPEERVRALSKLGCNITISEDITPRRYFRSGVEMERMASVYLEEGNLENAFVLYNKFITLFVEKLPNHRDYQQCAVPEKQDIMKKLKEIAFPRTDELKNDLLKKYNVEYQEYLQSKNKYKAEILKKLEHQRLIEAERKRIAQMRQQQLESEQFLFFEDQLKKQELARGQMRSQQTSGLSEQIDGSALSCFSTHQNNSLLNVFADQPNKSDATNYASHSPPVNRALTPAATLSAVQNLVVEGLRCVVLPEDLCHKFLQLAESNTVRGIETCGILCGKLTHNEFTITHVIVPKQSAGPDYCDMENVEELFNVQDQHDLLTLGWIHTHPTQTAFLSSVDLHTHCSYQLMLPEAIAIVCSPKHKDTGIFRLTNAGMLEVSACKKKGFHPHTKEPRLFSICKHVLVKDIKIIVLDLR
Turning to B5, the binding result in assay [5] and in assay [6] was “no binding” throughout.

B6: TAK1 (enzyme, UniProt O43318 1-606)
chain: MSTASAASSSSSSSAGEMIEAPSQVLNFEEIDYKEIEVEEVVGRGAFGVVCKAKWRAKDVAIKQIESESERKAFIVELRQLSRVNHPNIVKLYGACLNPVCLVMEYAEGGSLYNVLHGAEPLPYYTAAHAMSWCLQCSQGVAYLHSMQPKALIHRDLKPPNLLLVAGGTVLKICDFGTACDIQTHMTNNKGSAAWMAPEVFEGSNYSEKCDVFSWGIILWEVITRRKPFDEIGGPAFRIMWAVHNGTRPPLIKNLPKPIESLMTRCWSKDPSQRPSMEEIVKIMTHLMRYFPGADEPLQYPCQYSDEGQSNSATSTGSFMDIASTNTSNKSDTNMEQVPATNDTIKRLESKLLKNQAKQQSESGRLSLGASRGSSVESLPPTSEGKRMSADMSEIEARIAATTAYSKPKRGHRKTASFGNILDVPEIVISGNGQPRRRSIQDLTVTGTEPGQVSSRSSSPSVRMITTSGPTSEKPTRSHPWTPDDSTDTNGSDNSIPMAYLTLDHQLQPLAPCPNSKESMAVFEQHCKMAQEYMKVQTEIALLLQRKQELVAELDQDEKDQQNTSRLVQEHKKLLDENKSLSTYYQQCKKQLEVIRSQQQKRQGTS
Consider B6, for which the binding entry in assay [1] is listed as “no binding”.
